Measurements: paper PMC6919601, “Identification of Plasmodium dipeptidyl aminopeptidase allosteric inhibitors by high throughput screening” (PLoS ONE, 2019)
Screen size: about 110,000 compounds; about 230 (0.21%) showed an effect of 50% or more. The list shows a part of the results.

Each compound was assayed against DPAP1 (Plasmodium falciparum, UniProt Q8IIJ9) (assay: primary screen, percent inhibition; read by cleavage of a fluorogenic dipeptide substrate; higher = more effect of the substance).
Sequence of DPAP1 (Q8IIJ9 whole entry, looked up): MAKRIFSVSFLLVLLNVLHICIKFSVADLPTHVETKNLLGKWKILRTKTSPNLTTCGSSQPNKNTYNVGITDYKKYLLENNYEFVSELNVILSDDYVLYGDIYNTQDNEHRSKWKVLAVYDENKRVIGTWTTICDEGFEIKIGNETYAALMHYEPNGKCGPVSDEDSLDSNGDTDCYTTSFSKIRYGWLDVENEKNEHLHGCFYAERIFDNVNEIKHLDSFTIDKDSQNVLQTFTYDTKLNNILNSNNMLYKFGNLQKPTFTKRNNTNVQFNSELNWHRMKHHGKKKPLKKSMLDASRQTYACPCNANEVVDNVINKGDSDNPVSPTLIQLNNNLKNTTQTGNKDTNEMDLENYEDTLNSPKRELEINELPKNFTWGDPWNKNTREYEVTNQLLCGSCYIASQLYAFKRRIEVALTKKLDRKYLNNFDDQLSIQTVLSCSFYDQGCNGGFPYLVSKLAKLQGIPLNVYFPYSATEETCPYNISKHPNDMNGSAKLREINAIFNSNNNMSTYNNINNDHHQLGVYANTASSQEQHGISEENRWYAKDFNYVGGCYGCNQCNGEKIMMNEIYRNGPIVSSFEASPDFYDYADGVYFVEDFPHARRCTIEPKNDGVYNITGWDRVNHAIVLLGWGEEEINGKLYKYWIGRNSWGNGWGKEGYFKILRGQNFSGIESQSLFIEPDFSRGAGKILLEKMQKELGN
Set-up: species or system P. falciparum D10 trophozoite lysates; single well
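Further: 30 min substrate incubation versus DMSO and 10 µM JCP410 controls.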

First: COc1ccc(NS(=O)(=O)c2ccc(NC(=O)c3nn(C)c(C)c3Br)cc2)cc1
Second: COc1cccc(C(=O)Nc2ccc3oc(-c4ccc(F)cc4)nc3c2)c1
The “% Inhibition @ 10 uM” value of the first is higher: 3.69% for the first, -1.79% for the second.

Going from `Cc1ccc(-n2nnc(-c3nc(-c4ccncc4)no3)c2N)cc1` to `Cc1nn(Cc2nc(-c3ccncc3)no2)c(C)c1Br`, the “% Inhibition @ 10 uM” value falls from -0.485% to -4.49%.

Compared with `CCCCCCN(CCCCCC)c1nc2ccccc2nc1NS(=O)(=O)c1ccccc1`, `CCCCN(CCCNC(=O)Cn1ncc2c3ccccc3n(C)c2c1=O)Cc1ccccc1` is lower in “% Inhibition @ 10 uM” value: 7.66% for the first, -5.49% for the second.

Going from `CC1=C(C(=O)Nc2ccc(Cl)cc2)C(c2ccc(Cl)cc2)NC(=O)N1` (stereo not shown) to `Cc1ccc(CN2C(=O)CSC2c2ccc(C(C)C)cc2)cc1` (stereo not shown), the “% Inhibition @ 10 uM” value rises from -1.66% to 2.46%.

First: O=C(Nc1nc(-c2ccc(Cl)cc2Cl)cs1)c1ccco1
Second: O=C(NCc1ccco1)c1cc(-c2ccc(Cl)s2)nc2ccccc12
The “% Inhibition @ 10 uM” value of the first is higher: 5.29% for the first, -3.27% for the second.

Compared with `CN(CC(=O)NC1CCCc2ccccc21)S(=O)(=O)c1cccs1` (stereo not shown), `CCOc1ccc2nc(NC(=O)C3CCN(S(=O)(=O)c4cccs4)CC3)sc2c1` is lower in “% Inhibition @ 10 uM” value: 3.5% for the first, -1.28% for the second.

First: C/C(=N\CCCNC1CCCCC1)C1=C(O)CC(C)(C)CC1=O
Second: Cc1cccc(C)c1NC(=O)CN(C1CCCCC1)S(C)(=O)=O
The “% Inhibition @ 10 uM” value of the first is lower: -2.07% for the first, 0.632% for the second.

First: Cc1cccc(CN2CCC(CNC(=O)c3cc4ccc5cccnc5c4[nH]3)CC2)c1
Second: Cc1ccc(CS(=O)Cc2ccc(C(=O)N3CCN(c4ccccn4)CC3)o2)cc1 (stereo not shown)
The “% Inhibition @ 10 uM” value of the first is lower: 1.06% for the first, 2.03% for the second.

Going from `C/C(=N\C(C)C)C1=C(O)CC(c2ccccc2)CC1=O` (stereo not shown) to `CCOC(=O)Nc1ccc2c(c1)N(C(=O)CNC(C)C)c1ccccc1CC2`, the “% Inhibition @ 10 uM” value rises from -5.34% to -2.69%.

Going from `COc1cccc(CN(C)CCN(C)C)c1` to `COc1cccc(CNC(=O)CNS(=O)(=O)c2ccc(Br)s2)c1`, the “% Inhibition @ 10 uM” value falls from 5.43% to -0.601%.

First: CSCC[C@@H](NC(=O)OCc1ccccc1)C(=O)NCC#N
Second: CC(C)C[C@H](NC(=O)c1sccc1Br)C(=O)NCC#N
The “% Inhibition @ 10 uM” value of the first is higher: 0.079% for the first, -1.41% for the second.

First: CCCNC(=O)c1cccc(Cn2nc(C)c(Br)c2C)c1
Second: CCN(CC)S(=O)(=O)c1cc(C(=O)NCc2ccco2)ccc1Br
The “% Inhibition @ 10 uM” value of the first is lower: -0.598% for the first, 0.291% for the second.

Compared with `O=C(NCCN1CCN(S(=O)(=O)c2ccc(F)cc2)CC1)C(=O)NCc1ccccc1`, `NS(=O)(=O)c1ccc(CCNC(=O)COc2ccccc2)cc1` is lower in “% Inhibition @ 10 uM” value: -2.32% for the first, -3.49% for the second.

Going from `N#CC1=C(N)Oc2cc(N)ccc2C1c1ccc(Br)s1` (stereo not shown) to `CCc1[nH]nc2c1C(c1ccc(-c3ccc(F)cc3)o1)C(C#N)=C(N)O2` (stereo not shown), the “% Inhibition @ 10 uM” value falls from 1.41% to -3.16%.

Compared with `O=C(Nc1ccccc1NC(=O)N1CCCCC1)c1ccc(C(F)(F)F)cc1`, `Cc1ccc(C(=O)N/C(=C/c2ccccc2F)C(=O)N2CCNCC2)cc1` is lower in “% Inhibition @ 10 uM” value: -0.992% for the first, -6.7% for the second.

Compared with `O=C(O)c1cccc2c1NC(c1ccc(F)cc1)C1CC=CC21` (stereo not shown), `O=C(O)c1cc(N2C(=O)C3C4C=CC(CC4)C3C2=O)ccc1Cl` (stereo not shown) is higher in “% Inhibition @ 10 uM” value: -5.23% for the first, 2.15% for the second.

First: CC(=O)c1c(C(C)=O)c(C)n(Cc2ccco2)c1C
Second: CCCN(CCC)C(=O)Cn1ncc2c(C)n(Cc3ccccc3)c(C)c2c1=O
The “% Inhibition @ 10 uM” value of the first is higher: -0.173% for the first, -2.17% for the second.

Compared with `CC1(O)N(c2ccc(Cl)cc2)C(=O)OC12CCCCC2` (stereo not shown), `OCC1CCCN1Cc1ccc(Cl)cc1` (stereo not shown) is lower in “% Inhibition @ 10 uM” value: -3.26% for the first, -5.42% for the second.

Going from `CC1=Cc2ccccc2C(C#N)N1C(=O)c1ccccc1` (stereo not shown) to `COc1ccc(C2=NN(C(C)=O)C(c3ccccc3OCc3ccccc3)O2)cc1` (stereo not shown), the “% Inhibition @ 10 uM” value falls from 9.01% to -4.11%.

Going from `O=C1C2C3C=CC(C3)C2C(=O)N1c1ccc(Br)cc1F` (stereo not shown) to `CC1CC(C)CN(c2nnc(NC(=O)c3cc(-c4ccc(Br)cc4)on3)s2)C1` (stereo not shown), the “% Inhibition @ 10 uM” value rises from -3.18% to 3.3%.

Compared with `Cc1sc(CN(C)C)cc1-c1ccccc1`, `COc1ccccc1Nc1cc(C)nc2c(OC)cccc12` is lower in “% Inhibition @ 10 uM” value: 2.7% for the first, 1.05% for the second.

Going from `CCOC(=O)N1CCC(N(C)CCc2ccccc2)CC1` to `CC(C)Cn1c(=O)c2ccccc2n2c(CCC(=O)N3CCN(Cc4ccccc4)CC3)nnc12`, the “% Inhibition @ 10 uM” value falls from 3.18% to 0.981%.

First: COCc1c(Br)c(C)nc2sc3c(=O)n(CCc4ccccc4)nnc3c12
Second: Cc1ccccc1OCCSc1nc(-c2ccccc2F)nc2cc(=O)[nH]n12
The “% Inhibition @ 10 uM” value of the first is higher: 4.13% for the first, 1.97% for the second.

Going from `CCOc1nc(C)cc(COC)c1C(N)=O` to `COc1ccc(C(=O)CSc2nc(C)cc(C)c2C#N)cc1`, the “% Inhibition @ 10 uM” value rises from -4.56% to -1.37%.

First: CC1CCN(C(=O)c2cc(S(=O)(=O)N3CCCCC3)c[nH]2)CC1
Second: COC(=O)c1sccc1NC(=O)C1CCCN(S(=O)(=O)N2CCCCCC2)C1 (stereo not shown)
The “% Inhibition @ 10 uM” value of the first is higher: 2.24% for the first, -2.68% for the second.

Going from `Nc1c(C(=O)Nc2ccc(C(=O)O)cc2)sc2nc3c(cc12)CCCCC3` to `CC(=O)Nc1sc2c(c1C(=O)Nc1ccc(Br)cc1)CCCC2`, the “% Inhibition @ 10 uM” value falls from 4.88% to -4.06%.

Going from `CCOc1ccc2ncc(C(=O)c3ccccc3)c(N3CCOCC3)c2c1` to `CCOc1cc(C2C(C#N)=C(N)OC3=C2C(=O)CCC3)ccc1OCc1ccccc1` (stereo not shown), the “% Inhibition @ 10 uM” value rises from 1.31% to 2.01%.

Going from `Cc1ccc2onc(CNC(=O)N3CCC4(CC3)OCCO4)c2c1` to `CC1=C(C(=O)N2CCOCC2)C(c2ccc(Cl)cc2)C2=C(O)CC(C)(C)CC2=N1` (stereo not shown), the “% Inhibition @ 10 uM” value rises from -5.23% to 6.48%.

Compared with `COc1ccc(CC(=O)N2CCN(C(=O)Cc3ccc(OC)cc3)CC2)cc1`, `COc1ccc(C2SCC(=O)N2c2ccc(C)cc2)cc1` (stereo not shown) is higher in “% Inhibition @ 10 uM” value: 0.583% for the first, 0.912% for the second.

First: COc1ccc(CCNc2cc(C)nc3c(-c4ccc(OC)c(OC)c4)c(C)nn23)c(OC)c1
Second: COc1cc(C2CC(=O)Nc3c2ccc2ccccc32)cc(OC)c1OC (stereo not shown)
The “% Inhibition @ 10 uM” value of the first is higher: -0.138% for the first, -2.42% for the second.

First: CC1=CC(=O)C=C/C1=N/C(=N\S(=O)(=O)c1ccc(C)cc1)c1ccccc1
Second: Cc1ccc(CCNC(=O)CCS(=O)(=O)c2ccc3nc(C)sc3c2)cc1
The “% Inhibition @ 10 uM” value of the first is lower: -5.38% for the first, 3.54% for the second.

Compared with `CN1C(=O)C(=CNCCCN2CCCC2=O)C(=O)N(C)C1=O`, `CC(C)Cn1c(CN2CCN(Cc3ccccc3)CC2)nc2c1c(=O)[nH]c(=O)n2C` is higher in “% Inhibition @ 10 uM” value: -4.74% for the first, 6.37% for the second.

Compared with `Cn1c(=O)c2ncn(CC(=O)Nc3cc(C(C)(C)C)cc(Cl)c3O)c2n(C)c1=O`, `CCOc1cc(C2C(C(=O)OC)=CN(C(C)C)C=C2C(=O)OC)ccc1O` is higher in “% Inhibition @ 10 uM” value: -5.03% for the first, 0.219% for the second.

Compared with `COc1ccc(-c2cc(C)no2)cc1S(=O)(=O)Nc1cccnc1`, `COc1ccc(C2=NOC(C(=O)NCc3cccnc3)C2)cc1` (stereo not shown) is higher in “% Inhibition @ 10 uM” value: -5.87% for the first, -3.67% for the second.

Compared with `CCOc1ccc(-c2nc(C3COc4ccccc4O3)cs2)cc1` (stereo not shown), `CC(C)c1ccc(CSCc2nc3ccccc3[nH]2)cc1` is higher in “% Inhibition @ 10 uM” value: -2.63% for the first, 1.03% for the second.

Going from `O=C(C1CCN(c2ncnc3c2sc2cccc(F)c23)CC1)N1CCN(Cc2ccccc2)CC1` to `O=C(NCc1ccccc1)c1ccc(CN2CCc3ccccc3C2)cc1`, the “% Inhibition @ 10 uM” value falls from -0.637% to -1.65%.

First: CCc1nnc(NC(=O)CSc2nc(-c3cccs3)cc(C(F)(F)F)c2C#N)s1
Second: N#Cc1c(NC(=O)COc2ccccc2)sc2c1CCCC2
The “% Inhibition @ 10 uM” value of the first is higher: 9.42% for the first, 6.1% for the second.

First: CN(CCC#N)C(=O)Cn1ncc2c1-c1ccccc1OC2
Second: C#CCn1c(CCNC(=O)c2ccco2)nc2ccccc21
The “% Inhibition @ 10 uM” value of the first is lower: 2.6% for the first, 5.45% for the second.

First: CCCCOc1ccc(C(=O)N(CCCN(C)C)c2nc3c(OC)cccc3s2)cc1
Second: CCCCN(C)CCNC(=O)CCn1nc(-c2ccc(Cl)cc2)ccc1=O
The “% Inhibition @ 10 uM” value of the first is lower: -2.41% for the first, 1.62% for the second.

Going from `Cc1ccc(N)cc1NC(=O)c1ccc(N)cc1` to `COc1cccc(C(=O)Nc2ncccc2C)c1OC`, the “% Inhibition @ 10 uM” value falls from 8.19% to 3.35%.

Compared with `O=C(Cn1c(=O)n(Cc2ccco2)c(=O)c2sc3ccccc3c21)NC1CCCCC1`, `O=C(CSc1ncnc2sc3c(c12)CCCC3)NCc1ccco1` is higher in “% Inhibition @ 10 uM” value: -6.52% for the first, -3.41% for the second.

Going from `COc1cc(/C=c2/sc3nc4cc(C)c(C)cc4n3c2=O)cc(OC)c1OC` to `COc1cc2sc(C(=O)O)c(Cl)c2cc1OC`, the “% Inhibition @ 10 uM” value falls from -0.053% to -0.13%.

Going from `O=C(CSc1nnc(CNC(=O)c2c(F)cccc2Cl)o1)NCc1ccc2c(c1)OCO2` to `CC1=C(C(=O)Nc2ccccc2C)C(c2cccnc2)n2nc(-c3ccccc3Cl)nc2N1` (stereo not shown), the “% Inhibition @ 10 uM” value falls from -1.58% to -4.02%.

Compared with `CCOC(=O)c1c(S(=O)(=O)NC(C)(C)CC)c(C)n(C)c1C`, `Cc1ccc(C)c2nc(O)c(CCNS(C)(=O)=O)cc12` is lower in “% Inhibition @ 10 uM” value: 4.85% for the first, 1.97% for the second.

Compared with `C=C(C)Cn1c(S)nnc1-c1ccc(Cl)cc1Cl`, `Cc1cc(-c2[nH]nc3c2C(c2cc(F)ccc2F)C(C#N)=C(N)O3)c(C)s1` (stereo not shown) is lower in “% Inhibition @ 10 uM” value: 7.49% for the first, -2.77% for the second.

Compared with `O=C(NCCC1=CCCCC1)c1cc2cccc3c2n1CCS3`, `NC(=O)c1c(NC(=O)c2ccco2)sc2c1CCCCC2` is higher in “% Inhibition @ 10 uM” value: 4.76% for the first, 22.3% for the second.

Going from `CC(=O)N1N=C(c2cccs2)CC1c1ccco1` (stereo not shown) to `CC(C)(C)NC(=O)C(Cc1ccc([N+](=O)[O-])cc1)N1C(=O)c2ccccc2C1=O` (stereo not shown), the “% Inhibition @ 10 uM” value rises from -7.28% to 0.937%.

First: O=C(O)CNC(=O)c1ccncc1
Second: CC(C)C[C@H](NC(=O)c1ccc(N2CCOCC2)nc1)C(=O)NCC#N
The “% Inhibition @ 10 uM” value of the first is higher: 1.91% for the first, -9.15% for the second.

Going from `Cc1cccc(C)c1OCCCc1c(C)n[nH]c1C` to `Cc1cc(=O)oc2c(C)c3occc3cc12`, the “% Inhibition @ 10 uM” value falls from -1.64% to -5.99%.

Going from `N#Cc1c(N)nc2c(c1-c1ccc(F)cc1)CCCC2` to `Cc1cc(S(=O)(=O)NCc2nc(N)n(S(=O)(=O)c3ccc(F)c(C)c3)n2)ccc1F`, the “% Inhibition @ 10 uM” value falls from 0.345% to -0.447%.
